Assay results: the supplement of paper PMC3334620
Over roughly 33,000 sequences, “E-score (-0.5 to 0.5)” has its median near -0.012; the highest 2% begin near 0.27. The list shows a part of the results.

target: T1, Vhr1 (UniProt P40522); test: PBM E-score (8-mer binding enrichment) (E-score (-0.5 to 0.5)); higher = stronger / more preferred TF binding; most listed sequences are background and not binding sites; settings: protein concentration: 200 nM; construct: GST-full length
T1 sequence: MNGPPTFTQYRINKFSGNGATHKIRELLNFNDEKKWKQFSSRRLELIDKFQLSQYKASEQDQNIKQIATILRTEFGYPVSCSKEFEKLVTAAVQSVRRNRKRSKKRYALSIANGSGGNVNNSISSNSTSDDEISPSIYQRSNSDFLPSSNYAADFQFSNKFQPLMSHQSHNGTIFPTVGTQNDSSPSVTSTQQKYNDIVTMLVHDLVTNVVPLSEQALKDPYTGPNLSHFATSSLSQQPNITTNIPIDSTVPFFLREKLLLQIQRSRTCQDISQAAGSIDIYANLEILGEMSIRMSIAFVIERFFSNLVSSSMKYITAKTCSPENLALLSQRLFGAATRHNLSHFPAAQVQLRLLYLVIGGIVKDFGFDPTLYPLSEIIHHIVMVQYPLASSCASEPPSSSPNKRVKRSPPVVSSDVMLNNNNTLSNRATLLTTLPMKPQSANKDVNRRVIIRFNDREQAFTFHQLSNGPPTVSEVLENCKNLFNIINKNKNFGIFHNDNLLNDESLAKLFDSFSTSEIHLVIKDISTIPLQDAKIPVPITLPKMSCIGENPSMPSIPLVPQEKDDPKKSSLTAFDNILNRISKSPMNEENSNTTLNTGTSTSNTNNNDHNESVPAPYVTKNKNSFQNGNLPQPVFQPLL
Procedure: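 Universal 'all 10-mer' protein binding microarrays (Agilent AMADID 015681) probed with GST-tagged S. cerevisiae TFs (full-length or DBD) made by in vitro transcription/translation (PURExpress), about 100-200 nM. Bound TF was detected with fluorescent anti-GST. Each ungapped 8-mer (which stands for itself and its reverse complement) is scored by the PBM enrichment score (E-score), a modified Wilcoxon-Mann-Whitney statistic from -0.5 to +0.5, computed with the Universal PBM Analysis Suite. Scale: above 0.35 generally sequence-specific binding.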

| Sequence | PBM E-score |
| --- | --- |
| CCTTTCAG | -0.245 |
| GGAGCGCA | -0.344 |
| CAAGTTAC | -0.0596 |
| CCTTATGA | 0.125 |
| CGAGGAAG | -0.0342 |
| AGTGCGTA | 0.0484 |
| GAAGGATC | -0.0379 |
| ACCACGTA | -0.0666 |
| CGTGAGCA | -0.105 |
| CAATACCG | 0.092 |
| ACTTCTCA | -0.102 |
| GACAGTGC | 0.0443 |
| CGCTTCCA | -0.134 |
| GTTTGGAA | -0.19 |
| ATTTTACC | -0.0453 |
| GGACAGAC | 0.0477 |
| CGCGACAC | 0.224 |
| ATAGGCGG | 0.00193 |
| AACTATAT | 0.0791 |
| AGTAGCTG | -0.0149 |
| CGTGCTAG | -0.171 |
| GAGGCGTA | 0.0417 |
| CGTGTCAA | -0.145 |
| CAGTCCCG | -0.0554 |
| GCGATTAA | 0.184 |

| Sequence | PBM E-score |
| --- | --- |
| TCAGACCA | 0.203 |
| GAACTAAA | -0.115 |
| AGCTTGAA | -0.222 |
| ATCATCTG | 0.151 |
| AAGATTTC | -0.0651 |
| ACCATTTG | 0.0774 |
| CTTTGCGC | -0.0168 |
| CATTTCGC | 0.0604 |
| ATCAAGCG | -0.109 |
| AAAATGAA | -0.11 |
| CGACGGAC | -0.00384 |
| GATGTGTA | 0.2 |
| CCATTGGA | -0.0822 |
| GTTACTCA | 0.224 |
| CTTGCGCA | 0.142 |
| CCGACGGC | -0.105 |
| CGTGATGC | 0.162 |
| CGGGATGC | -0.114 |
| GCGCATTA | -0.035 |
| AGATCTTA | -0.0915 |
| AAATGCGG | 0.0968 |
| CACCACCA | 0.146 |
| CCTTAACG | -0.103 |
| ACATGCGT | 0.0853 |
| ACAATGTG | 0.0847 |

| Sequence | PBM E-score |
| --- | --- |
| GTTTGAAA | -0.0935 |
| CGCTTACC | -0.196 |
| GCCACATA | 0.03 |
| GTATTCCA | -0.0157 |
| CGAAGTGC | -0.107 |
| CCTAGGCG | -0.213 |
| TTACTAAA | -0.0751 |
| GGGGGCCA | -0.128 |
| ATTACTAA | 0.0221 |
| ACCCATTC | 0.199 |
| ATACTATG | 0.216 |
| ACATGCTG | 0.185 |
| ATAATGGA | 0.00279 |
| ACACAACC | 0.168 |
| GTCAGAAA | -0.0784 |
| CATGATTC | 0.424 |
| GGCAAGTA | 0.0953 |
| AATAAAAC | -0.254 |
| CGTGCAGC | 0.0437 |
| CTACACAC | 0.186 |
| AATAAGCG | -0.114 |
| CCCGTAGC | -0.244 |
| CAACGTTA | -0.0425 |
| GACGGGGC | 0.0761 |
| AATTCACA | -0.00719 |

| Sequence | PBM E-score |
| --- | --- |
| ATTACCGC | -0.0553 |
| GTCACTAA | 0.166 |
| AGGCGCGA | 0.0505 |
| GCTTCCCC | -0.101 |
| ATCAACCC | 0.205 |
| TCAAGGGA | -0.0372 |
| AGCTCCAA | 0.162 |
| CCTGGCAA | -0.189 |
| GGCCTCGA | -0.206 |
| CAAAAAGA | -0.162 |
| CGTTAGGC | -0.116 |
| ACCCAGAG | 0.21 |
| CTACGACA | 0.0458 |
| CCCGCCAG | 0.088 |
| CTCGGAGC | -0.0114 |
| AACCTACT | 0.118 |
| CATTTCCG | 0.0829 |
| AAGGGTGC | -0.0494 |
| TAGTCTCA | -0.0317 |
| ACCCCACA | 0.169 |
| AACATATA | 0.125 |
| AGGGCTGG | -0.0983 |
| CTAAGTTC | -0.326 |
| GACCCGTC | 0.0316 |
| CGGGGGGA | -0.0994 |

| Sequence | PBM E-score |
| --- | --- |
| CATTTGGA | -0.0584 |
| AGAGTTCA | -0.241 |
| CACCGACC | 0.0948 |
| CAAGCAAG | -0.0582 |
| AATGTTAA | -0.0066 |
| AGACCGCA | -0.0598 |
| ACTGCGAT | 0.131 |
| GGAGATCC | -0.0359 |
| AATGTCTA | -0.134 |
| TTGCAAAA | -0.213 |
| CTGTAGCC | 0.0591 |
| AAGCTTCC | -0.37 |
| GGGCAGGA | 0.134 |
| ATTATGTC | -0.133 |
| GCTCACCA | 0.0889 |
| TGTAGCAA | 0.0111 |
| AATTACCA | 0.0265 |
| CGCTTACA | -0.0577 |
| GCCCATAA | 0.0726 |
| CTAACCTA | -0.0357 |
| GAATCGAC | -0.005 |
| GAGACTGA | 0.0631 |
| GGGACGTA | -0.103 |
| AAAAGTGT | -0.22 |
| GCTCCCCA | -0.281 |

| Sequence | PBM E-score |
| --- | --- |
| CTTGGGCA | -0.111 |
| ACCCTGCA | 0.0323 |
| CAACATGG | 0.0395 |
| ATGGCACG | -0.058 |
| AACGATTA | -0.0484 |
| ATCGGCGA | -0.0993 |
| ATACGTAT | 0.233 |
| ATAGATTC | -0.00919 |
| ACCGCCGT | 0.0915 |
| GCGTAGCA | -0.03 |
| TAACCCTA | 0.0573 |
| CTAAGTAG | 0.0365 |
| AGTACCGG | -0.0717 |
| AGAATACC | 0.161 |
| GACCGGGC | -0.166 |
| CGAGACTC | 0.309 |
| GAGGTCGC | 0.00623 |
| TAGTTTAA | -0.102 |
| CATGCATG | 0.117 |
| AGTGGCCA | -0.0267 |
| AACTCATT | -0.176 |
| AACGATAC | -0.0471 |
| GCATCGCA | 0.00441 |
| AATTAGAT | -0.00863 |
| GCCGAAAC | -0.0437 |

| Sequence | PBM E-score |
| --- | --- |
| GATAGTCC | 0.0259 |
| CCACTCCG | 0.182 |
| GTATTGGA | -0.184 |
| GATTGAGA | 0.17 |
| AAGGTTGG | -0.145 |
| CTTAGTCA | 0.376 |
| AAGCTACG | -0.183 |
| ACCGGATC | 0.0913 |
| ATATTCAA | 0.0595 |
| GGACAAGA | -0.142 |
| CCTAAGAA | -0.159 |
| GTCCCCCA | -0.168 |
| GCAATGCC | -0.0222 |
| CCACGTAA | 0.0412 |
| ACTGACAT | 0.0699 |
| CCTCTAAC | -0.236 |
| GGCTAAAA | -0.269 |
| AGACGAGA | -0.152 |
| ATAGATCC | 0.00556 |
| ATTTTACG | -0.0604 |
| CGAATGAG | 0.0895 |
| CAGTAATC | 0.112 |
| AGACAAAG | -0.215 |
| AACTTTAT | 0.0379 |
| TAATAACA | -0.0306 |

| Sequence | PBM E-score |
| --- | --- |
| GCCATGTA | 0.127 |
| ACGATCCA | 0.19 |
| AGTATTTA | -0.0913 |
| AGCTAGCT | 0.0198 |
| AACACGGT | 0.0558 |
| GAGGAGGC | -0.241 |
| CTGAAACA | -0.0117 |
| ATGGTAGA | 0.021 |
| CTTCAAAC | -0.146 |
| AGCTAGTA | 0.153 |
| GCGATGAA | -0.00187 |
| AGAAATAC | -0.118 |
| AGGATACG | -0.122 |
| CTTTCTTC | -0.0742 |
| CGATGTAG | -0.0137 |
| AACAAATT | 0.0774 |
| CTAACGGA | -0.0572 |
| GGAACATA | 0.0536 |
| ATCCGTAC | 0.18 |
| ACATGCAA | 0.114 |
| CGATGAAC | 0.00701 |
| ACAAGTGG | -0.0165 |
| CCTCGCGA | -0.0849 |
| AGGCGGTC | -0.0553 |
| CACGTGGC | -0.0825 |

| Sequence | PBM E-score |
| --- | --- |
| CCTGTTTA | -0.0807 |
| CGAGTAAG | 0.211 |
| GGACCACC | 0.216 |
| GGCCCACA | -0.121 |
| CTTAAACC | -0.307 |
| GACAATCA | 0.119 |
| ACTTCGAT | -0.0101 |
| CGCTACTC | 0.00036 |
| AAGGGGTG | -0.0467 |
| GCCTGCAA | -0.161 |
| AGTGTAGC | 0.121 |
| AGAGCTAG | -0.118 |
| CTAGAGGA | -0.203 |
| GTAGTCAC | 0.441 |
| CCGTTCCC | -0.0166 |
| ACAGCAAT | 0.159 |
| GAGCAGCA | 0.0652 |
| ATACGATC | 0.102 |
| GATCTGCC | 0.0186 |
